Publication PMC9911399, “Two distinct binding modes provide the RNA-binding protein RbFox with extraordinary sequence specificity”
Where a chain is given by its changes, count along the chain named. The list shows a part of the results.

T1: RBFOX1 RRM (Homo sapiens, UniProt Q9NWB1 109-208)
T1 sequence: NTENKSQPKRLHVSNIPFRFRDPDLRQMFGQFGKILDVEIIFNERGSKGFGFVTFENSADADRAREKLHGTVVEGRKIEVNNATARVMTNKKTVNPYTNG

B1: CUUACUA (DNA:RNA)
RNA: GGGAGACCGGAAUUCAGAUUGUCCCUUACUAUUAAAUCCCGUCGUAGCCACCA
DNA 1: CAATCTGAATTCCGGTCTCCC
DNA 2: TGGTGGCTACGACGGGATT
B2: GCAACCA (DNA:RNA)
RNA: B1 RNA with C25G, U26C, U27A, U30C
DNA 1: CAATCTGAATTCCGGTCTCCC
DNA 2: TGGTGGCTACGACGGGATT
B3: GCCUGUG (DNA:RNA)
RNA: B1 RNA with C25G, U26C, U27C, A28U, C29G, A31G
DNA 1: CAATCTGAATTCCGGTCTCCC
DNA 2: TGGTGGCTACGACGGGATT
B4: CUGUCAG (DNA:RNA)
RNA: B1 RNA with U27G, A28U, U30A, A31G
DNA 1: CAATCTGAATTCCGGTCTCCC
DNA 2: TGGTGGCTACGACGGGATT
B5: AUUUCGC (DNA:RNA)
RNA: B1 RNA with C25A, A28U, U30G, A31C
DNA 1: CAATCTGAATTCCGGTCTCCC
DNA 2: TGGTGGCTACGACGGGATT
B6: GUGCUAU (DNA:RNA)
RNA: B1 RNA with C25G, U27G, A28C, C29U, U30A, A31U
DNA 1: CAATCTGAATTCCGGTCTCCC
DNA 2: TGGTGGCTACGACGGGATT
B7: UCACCUC (DNA:RNA)
RNA: B1 RNA with C25U, U26C, U27A, A28C, A31C
DNA 1: CAATCTGAATTCCGGTCTCCC
DNA 2: TGGTGGCTACGACGGGATT
B8: GGGCUAA (DNA:RNA)
RNA: B1 RNA with C25G, U26G, U27G, A28C, C29U, U30A
DNA 1: CAATCTGAATTCCGGTCTCCC
DNA 2: TGGTGGCTACGACGGGATT
B9: AUGAAAU (DNA:RNA)
RNA: B1 RNA with C25A, U27G, C29A, U30A, A31U
DNA 1: CAATCTGAATTCCGGTCTCCC
DNA 2: TGGTGGCTACGACGGGATT
B10: CGUCACC (DNA:RNA)
RNA: B1 RNA with U26G, A28C, C29A, U30C, A31C
DNA 1: CAATCTGAATTCCGGTCTCCC
DNA 2: TGGTGGCTACGACGGGATT
B11: AAUGCCC (DNA:RNA)
RNA: B1 RNA with C25A, U26A, A28G, U30C, A31C
DNA 1: CAATCTGAATTCCGGTCTCCC
DNA 2: TGGTGGCTACGACGGGATT
B12: GAUCAUU (DNA:RNA)
RNA: B1 RNA with C25G, U26A, A28C, C29A, A31U
DNA 1: CAATCTGAATTCCGGTCTCCC
DNA 2: TGGTGGCTACGACGGGATT
B13: UGGCCGU (DNA:RNA)
RNA: B1 RNA with C25U, U26G, U27G, A28C, U30G, A31U
DNA 1: CAATCTGAATTCCGGTCTCCC
DNA 2: TGGTGGCTACGACGGGATT
B14: UAAACCC (DNA:RNA)
RNA: B1 RNA with C25U, U26A, U27A, U30C, A31C
DNA 1: CAATCTGAATTCCGGTCTCCC
DNA 2: TGGTGGCTACGACGGGATT
B15: CGAAGUA (DNA:RNA)
RNA: B1 RNA with U26G, U27A, C29G
DNA 1: CAATCTGAATTCCGGTCTCCC
DNA 2: TGGTGGCTACGACGGGATT
B16: AAAGAGC (DNA:RNA)
RNA: GGGAGACCGGAAUUCAGAUUGUCCAAAGAGCUUAAAUCCCGUCGUAGCCACCA
DNA 1: CAATCTGAATTCCGGTCTCCC
DNA 2: TGGTGGCTACGACGGGATT
B17: UAGCUCA (DNA:RNA)
RNA: B16 RNA with A25U, A27G, G28C, A29U, G30C, C31A
DNA 1: CAATCTGAATTCCGGTCTCCC
DNA 2: TGGTGGCTACGACGGGATT
B18: AUUAAAU (DNA:RNA)
RNA: B1 RNA with C25A, C29A, U30A, A31U
DNA 1: CAATCTGAATTCCGGTCTCCC
DNA 2: TGGTGGCTACGACGGGATT
B19: UUUCCAA (DNA:RNA)
RNA: B1 RNA with C25U, A28C, U30A
DNA 1: CAATCTGAATTCCGGTCTCCC
DNA 2: TGGTGGCTACGACGGGATT
B20: UCUGACC (DNA:RNA)
RNA: B16 RNA with A25U, A26C, A27U, G30C
DNA 1: CAATCTGAATTCCGGTCTCCC
DNA 2: TGGTGGCTACGACGGGATT
B21: AUGGUUG (DNA:RNA)
RNA: B16 RNA with A26U, A27G, A29U, G30U, C31G
DNA 1: CAATCTGAATTCCGGTCTCCC
DNA 2: TGGTGGCTACGACGGGATT
B22: AACAAGC (DNA:RNA)
RNA: B16 RNA with A27C, G28A
DNA 1: CAATCTGAATTCCGGTCTCCC
DNA 2: TGGTGGCTACGACGGGATT
B23: CGGAAUG (DNA:RNA)
RNA: B1 RNA with U26G, U27G, C29A, A31G
DNA 1: CAATCTGAATTCCGGTCTCCC
DNA 2: TGGTGGCTACGACGGGATT
B24: AAUUAGA (DNA:RNA)
RNA: B16 RNA with A27U, G28U, C31A
DNA 1: CAATCTGAATTCCGGTCTCCC
DNA 2: TGGTGGCTACGACGGGATT
B25: GACCGAG (DNA:RNA)
RNA: B16 RNA with A25G, A27C, G28C, A29G, G30A, C31G
DNA 1: CAATCTGAATTCCGGTCTCCC
DNA 2: TGGTGGCTACGACGGGATT
B26: GCCCACG (DNA:RNA)
RNA: B16 RNA with A25G, A26C, A27C, G28C, G30C, C31G
DNA 1: CAATCTGAATTCCGGTCTCCC
DNA 2: TGGTGGCTACGACGGGATT
B27: UCACGUG (DNA:RNA)
RNA: B16 RNA with A25U, A26C, G28C, A29G, G30U, C31G
DNA 1: CAATCTGAATTCCGGTCTCCC
DNA 2: TGGTGGCTACGACGGGATT
B28: GAGCCGA (DNA:RNA)
RNA: B16 RNA with A25G, A27G, G28C, A29C, C31A
DNA 1: CAATCTGAATTCCGGTCTCCC
DNA 2: TGGTGGCTACGACGGGATT
B29: CCCGUGC (DNA:RNA)
RNA: B16 RNA with A25C, A26C, A27C, A29U
DNA 1: CAATCTGAATTCCGGTCTCCC
DNA 2: TGGTGGCTACGACGGGATT
B30: GAGAGUA (DNA:RNA)
RNA: B1 RNA with C25G, U26A, U27G, C29G
DNA 1: CAATCTGAATTCCGGTCTCCC
DNA 2: TGGTGGCTACGACGGGATT
B31: AAGAUCA (DNA:RNA)
RNA: B16 RNA with A27G, G28A, A29U, G30C, C31A
DNA 1: CAATCTGAATTCCGGTCTCCC
DNA 2: TGGTGGCTACGACGGGATT

The binders below were run against T1, RBFOX1 RRM (assay: EMSA; HiTS-Eq, 1 nM pool, 10 min; buffer printed only for the single-RNA assays: 10 mM Tris pH 7.5, 150 mM NaCl, 3.4 mM EDTA, 0.001% NP-40, 30 C). Details: tags: His6 N-terminal (pET28a); label: 5' 32P.
Method in brief: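 These values rest on relative association constants, computed from read-count changes of each RNA species versus the control reaction and normalised to the cognate motif. Reads came from free RNA recovered by 8% native PAGE after purified RbFox RRM (wild type or mutant) at increasing concentrations was equilibrated for 10 min in 50 µL with 1 nM of a 5′-radiolabelled pool with 7 randomized nucleotides and DNA-annealed flanks.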

Row | Binder | binding signal
1 | B1 | 0.00319 KA relative to UGCAUGU
2 | B2 | 0.004 KA relative to UGCAUGU
3 | B3 | 0.034 KA relative to UGCAUGU
4 | B4 | 0.015 KA relative to UGCAUGU
5 | B5 | 0.00798 KA relative to UGCAUGU
6 | B6 | 0.0156 KA relative to UGCAUGU
7 | B7 | 0.00109 KA relative to UGCAUGU
8 | B8 | 0.0063 KA relative to UGCAUGU
9 | B9 | 0.00417 KA relative to UGCAUGU
10 | B10 | 0.00293 KA relative to UGCAUGU
11 | B11 | 0.00474 KA relative to UGCAUGU
12 | B12 | 0.0063 KA relative to UGCAUGU
13 | B13 | 0.023 KA relative to UGCAUGU
14 | B14 | 0.000267 KA relative to UGCAUGU
15 | B15 | 0.00518 KA relative to UGCAUGU
16 | B16 | 0.00412 KA relative to UGCAUGU

Row | Binder | binding signal
17 | B17 | 0.00897 KA relative to UGCAUGU
18 | B18 | 0.000447 KA relative to UGCAUGU
19 | B19 | 0.00493 KA relative to UGCAUGU
20 | B20 | 0.0115 KA relative to UGCAUGU
21 | B21 | 0.0212 KA relative to UGCAUGU
22 | B22 | 0.00363 KA relative to UGCAUGU
23 | B23 | 0.0596 KA relative to UGCAUGU
24 | B24 | 0.00753 KA relative to UGCAUGU
25 | B25 | 0.0115 KA relative to UGCAUGU
26 | B26 | 0.00887 KA relative to UGCAUGU
27 | B27 | 0.0117 KA relative to UGCAUGU
28 | B28 | 0.0102 KA relative to UGCAUGU
29 | B29 | 0.00736 KA relative to UGCAUGU
30 | B30 | 0.00819 KA relative to UGCAUGU
31 | B31 | 0.00541 KA relative to UGCAUGU
